Measured values: the supplement of paper PMC7266297
Structures can show the parent of a compound that is named as a salt. The list shows a part of the results. Many values rest on one well or one pass, so single values are uncertain.

Each compound was assayed on KB-V1 (assay: growth inhibition relative to DMSO control (SRB); cervical cancer cells: KB-3-1 is the parent and KB-V1 overexpresses MDR1; SRB is the sulforhodamine B stain; higher = more growth inhibition). Conditions: 1 µM; 72 h.
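Also: Read-out is SRB optical density at 490 nm, with the control being wells given 0.5% DMSO vehicle, and compound added one day after cells were plated.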

Compound	growth inhibition
C=CC(=O)Nc1cccc(Nc2nc(Nc3ccc(Oc4ccnc(C(=O)NC)c4)cc3)ncc2F)c1	36.6%
CC(=O)/N=c1/sc(S(N)(=O)=O)nn1C [Methazolamide]	14%
CCc1c(C(=O)NCCc2ccc(N3CCCCC3)cc2)[nH]c2ccc(Cl)cc12	13.5%
CCNC(=O)[C@H]1O[C@@H](n2cnc3c(N)nc(NCCc4ccc(CCC(=O)O)cc4)nc32)[C@H](O)[C@@H]1O	14%
CC12CC3CC(C)(C1)CC(N)(C3)C2 [Memantine HCl]	29.4%
CCCCC(=O)O[C@H]1CC[C@H]2[C@@H]3CCc4cc(O)ccc4[C@H]3CC[C@]12C [Estradiol valerate]	< 0%
Cc1ccc(-n2nc(C(C)(C)C)cc2NC(=O)Nc2ccc(OCCN3CCOCC3)c3ccccc23)cc1 [BIRB 796 (Doramapimod)]	10.4%
CN(C)CCOc1ccc(/C(=C(/CCCl)c2ccccc2)c2ccccc2)cc1 [Toremifene Citrate]	23.3%
CCNC(=O)Nc1ccc(-c2nc3c(c(N4CCOC[C@@H]4C)n2)CCN(C2COC2)C3)cc1	54.6%
COc1ccc(-n2nc(C(N)=O)c3c2C(=O)N(c2ccc(N4CCCCC4=O)cc2)CC3)cc1 [Apixaban]	14.7%
COc1cc2c(Nc3ccc(NC(=O)c4ccccc4)cc3)ncnc2cc1OCCCN1CCOCC1	40.5%
CC(C)NCC(O)COc1ccc(COCCOC(C)C)cc1 (stereo unspecified) [Bisoprolol fumarate]	34.9%
COc1ccc(COc2cc3oc(=O)c4cc(C(C)O)ccc4c3cc2OC)cc1 (stereo unspecified) [Palomid 529 (P529)]	21.5%
Cn1c(N2CCCCS2(=O)=O)nc(C(=O)NCc2ccc(F)cc2)c(O)c1=O	83.8%
Cc1c(CN2CCN(C(=O)[C@H](C)O)CC2)sc2c(N3CCOCC3)nc(-c3cnc(N)nc3)nc12	80.7%
CC/C(=C(\c1ccccc1)c1ccc(OCCN(C)C)cc1)c1ccccc1 [Tamoxifen Citrate]	23.3%
Cc1c(NC(=O)OC[C@@H]2COCCN2)cn2ncnc(Nc3ccc4c(cnn4Cc4cccc(F)c4)c3)c12	17.1%
CC(C)(C)Cn1c(N)nc2ccc(-c3[nH]c(C(C)(C)C)nc3-c3ccc(F)cc3)nc21	23.4%

Compound	growth inhibition
CN1CCCC(n2nc(Cc3ccc(Cl)cc3)c3ccccc3c2=O)CC1 (stereo unspecified) [Azelastine HCl]	8.51%
O=C(O[C@H]1CN2CCC1CC2)N1CCc2ccccc2[C@@H]1c1ccccc1 [Solifenacin succinate]	9.68%
O=c1sn(-c2cccc3ccccc23)c(=O)n1Cc1ccccc1 [Tideglusib]	12.9%
Cc1nc(Nc2ncc(C(=O)Nc3c(C)cccc3Cl)s2)cc(N2CCN(CCO)CC2)n1 [Dasatinib]	60.6%
CCOC(=O)CCNc1cc(N2CCc3ccccc3CC2)nc(-c2ccccn2)n1	67.1%
Cn1cncc1[C@@](N)(c1ccc(Cl)cc1)c1ccc2c(c1)c(-c1cccc(Cl)c1)cc(=O)n2C [Tipifarnib]	68.7%
O=C1CN2Cc3c(ccc(Cl)c3Cl)N=C2N1 [Anagrelide HCl]	88.3%
CC1(C)CCC(c2ccc(Cl)cc2)=C(CN2CCN(c3ccc(C(=O)NS(=O)(=O)c4ccc(N[C@H](CCN5CCOCC5)CSc5ccccc5)c(S(=O)(=O)C(F)(F)F)c4)cc3)CC2)C1 [ABT-263 (Navitoclax)]	60.6%
O=C(CCCCCN1C(=O)c2cccc3cccc(c23)C1=O)NO [Scriptaid]	10.5%
CCN(CC)CCOC(=O)c1ccc(N)cc1 [Procaine HCl]	< 0%
O=c1c(O)c(-c2ccc(O)c(O)c2)oc2cc(O)cc(O)c12 [Quercetin]	< 0%
Cc1cc(C(C)Nc2ccccc2)c2nc(N3CCOCC3)cc(=O)n2c1 (stereo unspecified)	36.9%
CC(C)c1onc(-c2c(Cl)cccc2Cl)c1COc1ccc(/C=C/c2cccc(C(=O)O)c2)c(Cl)c1	62.8%
O=S(=O)(c1ccccc1)c1cnc2c(N3CCNCC3)cccc2c1	6.7%
COc1cc(Nc2ncc(F)c(Nc3ccc4c(n3)NC(=O)C(C)(C)O4)n2)cc(OC)c1OC	25.2%
Cn1c(=O)n(-c2ccc(C(C)(C)C#N)cc2)c2c3cc(-c4cnc5ccccc5c4)ccc3ncc21 [BEZ235 (NVP-BEZ235, Dactolisib)]	93.7%
Cc1ccc(NC(=O)c2cccc(C(C)(C)C#N)c2)cc1Nc1ccc2ncn(C)c(=O)c2c1	7.81%
CN(C)CCCCC(=O)Nc1ccc(NC(=S)NC(=O)c2ccc(C(C)(C)C)cc2)cc1 [Tenovin-6]	19.5%
